Measured values reported in PubChem BioAssay AID1963576 (National Center for Advancing Translational Sciences (NCATS), 2024).
In all, about 46,000 compounds went through this assay and about 60 (0.1%) were called active. Not shown: some 3% with an inconclusive outcome. Calls follow the shape of the dose curve; as a rule, active = well fitted inhibition curve with a large enough effect; inconclusive = small, poorly fitted or top-dose-only effect; inactive = no such curve, though single readings can be large or run the other way. The list shows a part of the results.

experiment: Primary qHTS assay for Inhibitors of ovarian cancer metastasis using an organotypic tumor microenvironment (TME) model.; also: nearly all actives have a fitted effect of over 65% in size;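 as to activity change, negative = inhibition: plate controls were DMSO wells for no effect and tomatine positive control wells for full effect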; details: SKOV3ip1-GFP adhesion/invasion on 3D omental model, fluorescence; series mostly up to 45.8 µM; activity change, negative = inhibition: at the top concentration
Procedure, shortened: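 qHTS, 4-pt dose (0.36-46 umol/L); SKOV3ip1-GFP, 1,200 cells/well, no FBS; primary omental fibroblast/mesothelial co-culture 48 h pre-grown; 2 h RT + 16 h 37 C; PBS wash, 4% PFA; GFP count 488/509 nm.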

SMILES | activity change, negative = inhibition | outcome
Fc1cccc(CN2CCc3nc(Nc4ccc5c(c4)OCCO5)ncc3C2)c1F | inactive: 4.3% | –
O=C(NCCc1cccs1)c1ccc(Cn2c(SCc3cccc(F)c3)nc3cccnc32)cc1 | inactive: 11.7% | –
COc1ccc(Cl)cc1NC(=O)Cn1c(=O)n2nc(-c3ccccc3)nc2c2ccccc21 | inactive: 11.4% | –
COc1cccc(NC(=O)Cn2c(=O)n(CCC(=O)NCc3ccccc3OC)c(=O)c3ccccc32)c1 | – | inactive
CCOc1ccc2c(c1)c(=O)c(C(=O)c1ccc(CC)cc1)cn2CC(=O)Nc1ccc2c(c1)OCCO2 | – | inactive
COc1cc(C2C=C(C(=O)O)Nc3ncnn32)ccc1O (stereo not drawn) | inactive: -3.53% | –
COc1ccc(-c2csc(-c3c(N)c(C(=O)c4ccc(OC)c(OC)c4)n4ccccc34)n2)cc1 | inactive: -9.84% | –
O=C(Nc1cccc(F)c1)c1cnc2sc(N3CCCC3)nn2c1=O | – | inactive
COc1ccc(CNC(=O)c2nn(C)c3c2CSc2ccccc2-3)cc1 | inactive: 20.4% | –
COC(=O)c1c(C)oc2ccc(N(C(=O)c3ccncc3)S(=O)(=O)c3ccc(Br)cc3)cc12 | inactive: -13.8% | –
COc1ccc(CNS(=O)(=O)c2ccc(-c3cc(C(F)(F)F)on3)s2)cc1OC | inactive: -1.91% | –
CCN1CCc2c(sc(-n3cccc3)c2C(C)NC(=O)Nc2ccc(C(=O)OC)cc2)C1 (stereo not drawn) | inactive: -1.79% | –
Cc1ccc(NC(=O)Cn2cc3c(n2)CCCC3)cc1Cl | inactive: -12% | –
COc1ccc(C)c2sc(N(Cc3cccnc3)C(=O)c3cccs3)nc12 | inactive: -1.47% | –
COc1ccc(NC(=O)c2ccco2)cc1NC(=O)c1ccccc1[N+](=O)[O-] | inactive: -4.05% | –
Cc1ccc(NC(=O)Cn2c(=O)n(Cc3ccccc3)c(=O)c3c(C)c(C(=O)N(C)C)sc32)c(C)c1 | inactive: -0.903% | –
CCOC(=O)c1ccc(N2C(=O)c3n[nH]c(-c4ccco4)c3C2c2ccccc2OC)cc1 (stereo not drawn) | – | inactive
COc1ccc(N(C)S(=O)(=O)c2ccc3c(c2)CCN3C(=O)CCC(=O)O)cc1 | – | inactive
CCc1cccc(C)c1Nc1nn2c(=O)c3ccccc3nc2s1 | inactive: -2.7% | –
O=C1Nc2ccc(I)cc2C1=Cc1cc(Br)c(O)c(Br)c1 | inactive: 13.6% | –
Cc1ccc(CNC(=O)c2ccc3c(c2)c(C)c(C)n3Cc2ccc(Cl)cc2)o1 | inactive: 21.2% | –
Cc1nn(S(=O)(=O)c2ccc(F)cc2)c(C)c1S(=O)(=O)N1CCCCCC1 | – | inactive
COc1cc(-c2cc(OC)c3c(C)oc(C)c3c(=O)c2)ccc1OC(=O)c1cccc(C)c1 | – | inactive
CCc1cccc(C)c1NC(=O)CSc1nc2ccncc2[nH]1 | inactive: -6.97% | –

SMILES | activity change, negative = inhibition | outcome
CCOc1ccc(C2C(C(=O)Nc3ccc(OC)cc3)=C(C)Nc3nc(CCCO)nn32)cc1 (stereo not drawn) | – | inactive
COc1ccc(NC(=O)C2CCN(c3cc(C)nc4c(-c5ccc(Cl)cc5)c(C)nn34)CC2)cc1 | – | inactive
Cc1c(-c2ccccc2)c(=O)oc2c(CN3CCOCC3)c(O)ccc12 | inactive: 5.29% | –
Cc1ccc(C2C=C(c3ccccc3)Nc3nc(NS(C)(=O)=O)nn32)cc1 (stereo not drawn) | – | inactive
Cc1ccc(-c2noc(-c3ccc(N4CCCC4)c([N+](=O)[O-])c3)n2)cc1 | inactive: 0.842% | –
CCCc1cc(=O)[nH]c(SCc2nc(-c3ccc(OCC)cc3)no2)n1 | inactive: 0.239% | –
Cc1ccc(OCCCCn2c(-c3ccc(Cl)cc3)nc3ccccc3c2=O)cc1 | inactive: 3.01% | –
CC(C)c1ccc(NC(=O)Cn2nnc(C(=O)NCc3ccc4c(c3)OCO4)c2N)cc1 | – | inactive
Cc1ccc(NC(=O)Cn2c(=O)n(Cc3ccc4c(c3)OCO4)c(=O)c3oc4ccccc4c32)cc1C | – | inactive
CCOC(=O)c1c(C)oc2nc(C)nc(NCCc3ccc(Cl)cc3)c12 | inactive: 9.84% | –
Cc1ccccc1CN1CCCN(CC(=O)Nc2ccc(F)cc2)S1(=O)=O | inactive: 3.49% | –
Cc1cccc(NC(=O)c2cn(-c3ccccc3)nc2-c2ccccc2)c1C | inactive: -1.88% | –
COc1cccc(NS(=O)(=O)c2ccc3[nH]cc(C(=O)NC(C)c4ccccc4)c(=O)c3c2)c1 (stereo not drawn) | – | inactive
CCOC(=O)C1CCN(Cc2cn3c(-c4ccc(OC)cc4)nnc3s2)CC1 | – | inactive
Cn1c(=O)oc2cc(S(=O)(=O)NC(Cc3ccccc3)C(=O)Nc3ccc(F)c(Cl)c3)ccc21 (stereo not drawn) | inactive: 2.75% | –
Cc1cc(N2CCC(C(=O)Nc3ccc(F)cc3F)CC2)n2nc(C)c(-c3ccc(Cl)cc3)c2n1 | – | inactive
CCOc1ccc(C(=O)Nc2ccc3nc(N(CC)CC)cc(C)c3c2)cc1 | inactive: -6.28% | –
CO[C@@]12[C@H](COC(N)=O)C3=C(C(=O)C(C)=C(N)C3=O)N1C[C@@H]1N[C@@H]12 | inactive: -11.5% | –
Cc1ccc(/C=C/C(=O)Nc2ccc3nc(N4CCC(C)CC4)cc(C)c3c2)cc1 | inactive: 5.97% | –
CCOc1ccc(NC(=O)c2sc(-n3nc(C)c(Cc4ccc(Cl)cc4)c3C)nc2C)cc1 | inactive: -0.245% | –
Clc1ccccc1Cn1c(-c2cccs2)nc2ccccc21 | inactive: -11.2% | –
Cc1nnc(NC(=O)c2nc(SC(C)C)ncc2Cl)s1 | inactive: 2.82% | –
CCOc1cccc2sc(NC(=O)c3ccc(S(=O)(=O)N4CCCCC4C)cc3)nc12 (stereo not drawn) | – | inactive
CCN(c1cccc(C)c1)S(=O)(=O)c1cc2c(cc1C)n(C)c(=O)c(=O)n2C | – | inactive

SMILES | activity change, negative = inhibition | outcome
Cc1cccc(N(C)C(=O)CCS(=O)(=O)c2ccc3c(c2)n(C)c(=O)c(=O)n3C)c1 | inactive: 20.2% | –
CCOC(=O)c1c(-c2ccc(C)cc2)csc1NC(=O)c1cc(-c2ccc(OC)cc2)on1 | inactive: -1.07% | –
CCc1cccc(NC(=O)c2ccc3c(c2)N(Cc2cccc(Cl)c2)C(=O)c2ccccc2S3=O)c1 (stereo not drawn) | inactive: 15.6% | –
COc1ccc(CCNC(=O)c2ccc3c(c2)N=C(C)c2ccccc2S3)cc1OC | inactive: 9.49% | –
COc1ccc(-c2nc3ccccc3o2)cc1NC(=O)c1cccnc1 | inactive: 7.71% | –
CCCn1c2ccccc2c2cnn(CC(=O)NCCN(CC)CC)c(=O)c21 | inactive: 9.19% | –
Cc1cccc(NC(=O)CN(C)S(=O)(=O)c2ccc3c(c2)c(=O)n(C)c(=O)n3C)c1C | inactive: 98.8% | –
Cc1cc(Nc2cccc(C(=O)O)c2)n2nc(C)nc2n1 | inactive: 9.74% | –
COc1ccc(CCNS(=O)(=O)c2c(C)nc3sc(C)cn3c2=O)cc1OC | inactive: 3.78% | –
CCCCOc1ccc(C(=O)Nc2cc(-c3cn4cccnc4n3)ccc2OC)cc1 | inactive: 12% | –
CCOc1c(Cl)cc(CNc2ccc3[nH]c(=O)[nH]c3c2)cc1OC | inactive: -19.8% | –
COc1ccc(NC(=O)NC(C)c2c(-n3cccc3)sc(C)c2C)cc1OC (stereo not drawn) | inactive: -9.45% | –
O=C(CSCc1cccc(F)c1)NCc1ccccc1 | inactive: -1.27% | –
CCCC1=Nc2cc(C(=O)NCc3ccc(OC)cc3)ccc2Sc2ccc(C)cc21 | inactive: -13.3% | –
Fc1cccc(-n2ncc3c2ncn2nc(COc4ccc(Cl)cc4)nc32)c1 | inactive: -0.244% | –
O=C(CCC1N=C2c3ccccc3N=C(SCc3ccc(F)cc3)N2C1=O)NCc1ccc(F)cc1 (stereo not drawn) | inactive: -26.4% | –
COc1ccc(-n2c(=O)c3c(c4cc(OC)ccc4n3C)n(Cc3cccc(OC)c3)c2=O)cc1 | – | inactive
COc1ccc(-c2cc3nc(C)c(CCC(=O)Nc4ccccc4C(C)=O)c(C)n3n2)c(OC)c1 | inactive: 5.53% | –
CCc1cccc(C)c1NC(=O)Cn1ccn(-c2cccc(OC)c2)c(=O)c1=O | inactive: 5.84% | –
Cc1cccc(Cn2c(SCc3ccc(C(=O)NCCc4ccccc4)cc3)nc3ccncc32)c1 | inactive: -10.4% | –
O=C(CCc1nc(CN2CCN(S(=O)(=O)c3ccc(Cl)cc3)CC2)no1)N1CCCCC1 | inactive: 1.99% | –
Cc1ccc(S(=O)(=O)Nc2cc3c(cc2NCc2ccccc2)n(C)c(=O)n3C)c(C)c1 | inactive: -3.64% | –
CN1CCc2c(sc3c2C(=O)NC(c2ccc(OC(=O)c4ccc(C(C)(C)C)cc4)cc2)N3)C1 (stereo not drawn) | inactive: -17.5% | –
CCOc1ccc(C(=O)NCCn2cc(SCC(=O)Nc3ccc4c(c3)OCCO4)c3ccccc32)cc1 | inactive: -7.66% | –

SMILES | activity change, negative = inhibition | outcome
CCOc1ccc(-c2nc(CSCC(=O)N3CCN(c4ccc(F)cc4)CC3)c(C)o2)cc1 | inactive: 1.33% | –
Cc1nc2scc(C)n2c(=O)c1S(=O)(=O)Nc1ccc(N2CCOCC2)c(Cl)c1 | inactive: -13.7% | –
CCC(C(=O)Nc1cc(OC)cc(OC)c1)n1nc(-c2ccc(C)c(C)c2)ccc1=O (stereo not drawn) | inactive: 15.5% | –
CCN(CC)C(=O)c1sc2c(c1C)c(=O)n(-c1ccc(Cl)c(Cl)c1)c(=O)n2Cc1ccccc1C#N | inactive: 1.34% | –
COCCCNc1oc(/C=C/c2cc(OC)c(OC)c(OC)c2)nc1C#N | inactive: 32.3% | –
COc1cc(NC(=O)Cn2c(=O)n(Cc3ccco3)c(=O)c3sc4ccccc4c32)cc(OC)c1 | – | inactive
CN(C)c1ccc(-c2nc(-c3cc4cc(Cl)ccc4oc3=O)cs2)cc1 | inactive: 1.84% | –
CCc1cccc(NC(=O)CCC(=O)N2CCSc3ccccc32)c1 | inactive: 1.14% | –
Cc1ccc(Oc2c(C(F)(F)F)oc3c(CN4CCC(C)CC4)c(O)ccc3c2=O)cc1 | inactive: 7.49% | –
Cc1cccc(CCNC(=O)c2ccc3c(c2)N(Cc2ccccc2F)C(=O)c2ccccc2S3)c1 | – | inactive
Cc1cc(-c2ccc(C)c(S(=O)(=O)N3CCN(c4cccc(C(F)(F)F)c4)CC3)c2)on1 | inactive: -12.3% | –
Cc1cccc(NC(=O)CSc2ncc3c(n2)-c2ccccc2N(Cc2ccc(F)cc2)S3(=O)=O)c1C | inactive: -2.3% | –
CCC(C)NC(=O)c1cc(-c2cccc(OC)c2)on1 (stereo not drawn) | inactive: -8% | –
Cc1ccc(N2CCN(C(=O)c3c(C)oc4ncn(CC(C)C)c(=O)c34)CC2)c(C)c1 | inactive: -0.75% | –
CCc1ccc(C(=O)c2cn(CC(=O)Nc3cc(C)ccc3C)c3nc(C)ccc3c2=O)cc1 | inactive: 0.616% | –
CCN(CC)C(=O)c1c(-c2ccccc2)c(-c2ccccc2)nn(C)c1=O | inactive: 4.23% | –
CC(=O)N1CCCc2cc(S(=O)(=O)N3CCC(C(=O)Nc4cccc(Cl)c4C)CC3)ccc21 | inactive: 0.919% | –
Cc1cc2ccccc2n1-c1ccc(C(=O)N2CCC(C(=O)NCc3ccc(Cl)cc3)CC2)s1 | inactive: -14.4% | –
COc1ccc(N2CCN(C(=O)CCn3nc(C)c(S(=O)(=O)N4CCCC4)c3C)CC2)cc1 | inactive: -1.64% | –
O=C(CSc1nnc(-c2cccs2)o1)Oc1ccccc1 | – | inactive
CCOC(CN1C(=O)[C@](CC(=O)Nc2ccc(C)cc2)(NC(=O)Nc2ccc(C)cc2)c2ccccc21)OCC | inactive: -1.2% | –
